Sequences and labels used below:
B1: PhoQ; a variant is named by its letters at X, in order, P23837 (parent)
chain: MKKLLRLFFPLSLRVRFLLATAAVVLVLSLAYGMVALIGYSVSFDKTTFRLLRGESNLFYTLAKWENNKLHVELPENIDKQSPTMTLIYDENGQLLWAQRDVPWLMKMIQPDWLKSNGFHEIEADVNDTSLLLSGDHSIQQQLQEVREDDDDAEMTHSVAVNVYPATSRMPKLTIVVVDTIPVELKSSYMVWSWFIYVLSANLLLVIPLLWVAAWWSLRPIEALAKEVRELEEHNRELLNPATTRELTSLVRNLNRLLKSERERYDKYRTTLTDLTHSLKTPLXXLQXXLRSLRSEKMSVSDAEPVMLEQISRISQQIGYYLHRASMRGGTLLSRELHPVAPLLDNLTSALNKVYQRKGVNISLDISPEISFVGEQNDFVEVMGNVLDNACKYCLEFVEISARQTDEHLYIVVEDDGPGIPLSKREVIFDRGQRVDTLRPGQGVGLAVAREITEQYEGKIVAGESMLGGARMEVIFGRQHSAPKDE

Some of the results follow.

The variants in the assay derive from B1. Kind of assay: enrichment ratio after two sorts for PhoP signalling (ratio (wild type AVST 3.29)); higher = more functional. The settings on record: with PhoP (E. coli).
As for RTLI, the enrichment ratio is no more than 0.25. In the case of SDNK, the enrichment ratio is no more than 0.25.

HVPA: the enrichment ratio is no more than 0.25. For the variant EFDA, the enrichment ratio was no more than 0.25. As for QNFQ, the figure is no more than 0.25. On to TTIL, for which the enrichment ratio was no more than 0.25. Turning to KGFI, the enrichment ratio is no more than 0.25.

Consider IIPC, for which the enrichment ratio was no more than 0.25. As for FNDQ, the enrichment ratio was no more than 0.25. With SIRI, the enrichment ratio is no more than 0.25.

On to FRKM, for which the enrichment ratio is no more than 0.25. Regarding MKLF, the enrichment ratio is no more than 0.25.

Regarding RCCI, the enrichment ratio was no more than 0.25. As for EHGK, the figure is no more than 0.25; as for TFDK, no more than 0.25; as for NCYT, no more than 0.25.

For the variant DKAW, the enrichment ratio is no more than 0.25. For the variant SYWK, the enrichment ratio was no more than 0.25. In the case of QEHE it was no more than 0.25; in that of QEYW, no more than 0.25. On to SEDC, for which the enrichment ratio is no more than 0.25. On to ICWE, for which the enrichment ratio was no more than 0.25. In the case of LQLC it was no more than 0.25; in that of NTTM, no more than 0.25; in that of KFWI, no more than 0.25. EYIK: the enrichment ratio was no more than 0.25. For WHPS, the enrichment ratio is no more than 0.25.

On to TYRI, for which the enrichment ratio was no more than 0.25. Consider GLDV, for which the enrichment ratio is no more than 0.25. Turning to YKEF, the enrichment ratio is no more than 0.25. For the variant VDAI, the enrichment ratio was no more than 0.25. As to ERWM, the enrichment ratio is no more than 0.25. Take NAWN: the enrichment ratio is no more than 0.25. Turning to MCVL, the enrichment ratio is no more than 0.25.

Consider HKVK, for which the enrichment ratio was no more than 0.25.

As to GSNE, the enrichment ratio is no more than 0.25.

Turning to KNDH, the enrichment ratio is no more than 0.25. With EAWL, the enrichment ratio is no more than 0.25. As for MMNM, the figure is no more than 0.25.

Regarding SPKE, the enrichment ratio is no more than 0.25. In the case of WKLS, the enrichment ratio was no more than 0.25. As to QHND, the enrichment ratio is no more than 0.25.

In the case of QTLW, the enrichment ratio was no more than 0.25. Take DWNC: the enrichment ratio was no more than 0.25. Regarding ATTS, the enrichment ratio was determined as 9.63. For the variant LHMA, the enrichment ratio was no more than 0.25.

As for GNHR, the enrichment ratio was no more than 0.25. Consider QFHI, for which the enrichment ratio is no more than 0.25. In the case of RLDQ it was no more than 0.25; in that of FIQR, no more than 0.25; in that of NRQI, no more than 0.25. On to RFFS, for which the enrichment ratio was no more than 0.25.

On to SSMY, for which the enrichment ratio amounted to 10.5. In the case of SRAG it was no more than 0.25. As to LYEC, the enrichment ratio was no more than 0.25. YHTC: the enrichment ratio is no more than 0.25. On to QIMR, for which the enrichment ratio was no more than 0.25. As to QLLM, the enrichment ratio is no more than 0.25. Take NESN: the enrichment ratio was no more than 0.25. For RGAV, the enrichment ratio was no more than 0.25.

In the case of LWLQ, the enrichment ratio is no more than 0.25. YTMR: the enrichment ratio is no more than 0.25. As for KNTT, the figure is no more than 0.25; as for IYKT, no more than 0.25. As for HECG, the figure is no more than 0.25. As for KPRL, the enrichment ratio is no more than 0.25. In the case of HLII, the enrichment ratio was no more than 0.25. Turning to WFGH, the enrichment ratio is no more than 0.25.

HTIM: the enrichment ratio is no more than 0.25.

On to TQQE, for which the enrichment ratio amounted to 44.9. Turning to RHHV, the enrichment ratio was no more than 0.25.

EIGA: the enrichment ratio was no more than 0.25. Turning to FDKP, the enrichment ratio was no more than 0.25. As to TWWK, the enrichment ratio is no more than 0.25.

For the variant FTFN, the enrichment ratio is no more than 0.25. Take HDMS: the enrichment ratio is no more than 0.25. Turning to FFEG, the enrichment ratio was no more than 0.25. Take FWSA: the enrichment ratio is no more than 0.25. As for HWLN, the figure is no more than 0.25; as for TQHA, no more than 0.25. For AQDY, the enrichment ratio was no more than 0.25. In the case of LPKQ it was no more than 0.25. As for PQEA, the figure is no more than 0.25; as for GGWI, no more than 0.25. On to VQTN, for which the enrichment ratio is no more than 0.25. As for MILG, the figure is 5.28; as for QQCS, no more than 0.25; as for STFW, no more than 0.25. Take QVML: the enrichment ratio is no more than 0.25.

Take MGLW: the enrichment ratio is no more than 0.25. In the case of LEPP, the enrichment ratio is no more than 0.25. Take KTVY: the enrichment ratio was no more than 0.25. With NDWQ, the enrichment ratio is no more than 0.25.

Take TMRE: the enrichment ratio was no more than 0.25.

MPDY: the enrichment ratio was no more than 0.25. Take SVTR: the enrichment ratio was 8.52.

Regarding KDEY, the enrichment ratio is no more than 0.25. In the case of TGAK, the enrichment ratio is no more than 0.25. In the case of DEMV it was no more than 0.25; in that of FLIP, no more than 0.25. In the case of RGVM, the enrichment ratio was no more than 0.25. As to KLQP, the enrichment ratio was no more than 0.25. With WNGG, the enrichment ratio turned out to be 0.557. Regarding TFVT, the enrichment ratio was no more than 0.25. For DMYF, the enrichment ratio was no more than 0.25. SEKT: the enrichment ratio was no more than 0.25. On to QIHH, for which the enrichment ratio is no more than 0.25. As for SQWS, the enrichment ratio was found to be 0.878. As for PGYV, the enrichment ratio was no more than 0.25. As for IQCK, the enrichment ratio was no more than 0.25.

Regarding LFND, the enrichment ratio was no more than 0.25.

EFHE: the enrichment ratio was no more than 0.25. Consider DTMM, for which the enrichment ratio was no more than 0.25. MDRV: the enrichment ratio is no more than 0.25.

Consider YATL, for which the enrichment ratio came to 2.48.

With SCSI, the enrichment ratio is 8.62. Take WKVS: the enrichment ratio is no more than 0.25. TRGT: the enrichment ratio was no more than 0.25. On to DEIG, for which the enrichment ratio is no more than 0.25. On to WPFD, for which the enrichment ratio was no more than 0.25. In the case of LNSR it was no more than 0.25; in that of NQLP, no more than 0.25. Consider PPLL, for which the enrichment ratio was no more than 0.25. In the case of DHHP it was no more than 0.25. Regarding TILN, the enrichment ratio was 0.661. For the variant QVYA, the enrichment ratio is no more than 0.25.

As for DTAP, the enrichment ratio was no more than 0.25. As for FVAH, the enrichment ratio was no more than 0.25. In the case of CHPF it was no more than 0.25. Consider QGNC, for which the enrichment ratio was no more than 0.25. As to DYHE, the enrichment ratio is no more than 0.25.

For the variant AQYK, the enrichment ratio was no more than 0.25. For the variant TAWW, the enrichment ratio is no more than 0.25. Regarding GRCT, the enrichment ratio is no more than 0.25. In the case of GCIT it was no more than 0.25. Consider DTYK, for which the enrichment ratio was no more than 0.25. In the case of VPNI, the enrichment ratio is no more than 0.25. On to PIPK, for which the enrichment ratio was no more than 0.25. Take TMRI: the enrichment ratio was no more than 0.25. For the variant KNAA, the enrichment ratio is no more than 0.25. For YQNQ, the enrichment ratio turned out to be 0.253.

On to FIQH, for which the enrichment ratio is no more than 0.25.

As for NWYN, the enrichment ratio was no more than 0.25.

Take MVTP: the enrichment ratio is no more than 0.25. For the variant APEA, the enrichment ratio was no more than 0.25. As for TAHL, the enrichment ratio amounted to 17.4. Regarding KSHI, the enrichment ratio is no more than 0.25. Turning to ESIM, the enrichment ratio is 2.63.

On to KIYL, for which the enrichment ratio is no more than 0.25. As for EYHL, the figure is no more than 0.25; as for SVWH, no more than 0.25.

In the case of QWAR, the enrichment ratio is no more than 0.25. Turning to QHFD, the enrichment ratio was no more than 0.25.

GQQV: the enrichment ratio was no more than 0.25. As to HTRR, the enrichment ratio is no more than 0.25. Turning to NTDD, the enrichment ratio is no more than 0.25. As for ILHF, the figure is no more than 0.25; as for PHGV, no more than 0.25; as for PQKL, no more than 0.25. In the case of MFCK it was no more than 0.25; in that of WFAM, 5.18; in that of WTAW, no more than 0.25. For the variant VFIR, the enrichment ratio stood at 0.702. In the case of YSPP it was no more than 0.25. With YFSP, the enrichment ratio is no more than 0.25. On to EQTF, for which the enrichment ratio is no more than 0.25. With LHKR, the enrichment ratio is no more than 0.25.

As to KISL, the enrichment ratio is no more than 0.25. Turning to WRMR, the enrichment ratio is no more than 0.25. YPLA: the enrichment ratio is no more than 0.25.

Turning to AQWV, the enrichment ratio is no more than 0.25. In the case of GDSW, the enrichment ratio was no more than 0.25.

For the variant WLRQ, the enrichment ratio was no more than 0.25. On to GWCD, for which the enrichment ratio is no more than 0.25. Consider NNLR, for which the enrichment ratio is no more than 0.25. With APTT, the enrichment ratio is no more than 0.25.

As for NDPQ, the enrichment ratio is no more than 0.25. Consider LDAA, for which the enrichment ratio is no more than 0.25. Consider DCRN, for which the enrichment ratio is no more than 0.25. For ALPV, the enrichment ratio is no more than 0.25. As for FNQT, the figure is no more than 0.25; as for VDAA, no more than 0.25. As for YCHR, the enrichment ratio was no more than 0.25. In the case of QFCH, the enrichment ratio was no more than 0.25. Turning to TCKL, the enrichment ratio was no more than 0.25.

On to RQYI, for which the enrichment ratio is no more than 0.25. Consider HGRI, for which the enrichment ratio was no more than 0.25. Take NFAD: the enrichment ratio is no more than 0.25. Regarding FNMR, the enrichment ratio is no more than 0.25. As to IRLM, the enrichment ratio was no more than 0.25.

For RMCC, the enrichment ratio was no more than 0.25. As to ACGT, the enrichment ratio is 4.5. EDPR: the enrichment ratio is no more than 0.25.

As for GQYE, the enrichment ratio was no more than 0.25.

On to TCGI, for which the enrichment ratio came to 25.

These data come from a collection of fitness landscapes (doi:10.1126/science.1257360).
